In the supplement of paper PMC8285479:
Structures can show the parent of a compound that is named as a salt. ± gives the standard deviation of the averaged measurements. In all, about 1,900 compounds were measured (“normalised cell viability (NPI; 0 = phenylarsine oxide control, 1 = DMSO control)”: median about 1, lowest 2% from about 0.039 on). The list shows a part of the results.

Tested on: NCI-H1944
Assay: normalised cell viability (NPI; 0 = phenylarsine oxide control, 1 = DMSO control) (fraction of DMSO control); NCI-H1944 is a non-small cell lung cancer line; higher = more viable cells (less compound toxicity)
Conditions: 6 days
[1] = glucocorticoid arm: hydrocortisone 2.75 uM co-treatment, compound 1 µM
[2] = glucocorticoid arm: hydrocortisone 2.75 uM co-treatment, compound 5 µM
[3] = glucocorticoid arm: hydrocortisone 2.75 uM pre-treated 2 days and continued, compound 1 µM
[4] = glucocorticoid arm: hydrocortisone 2.75 uM pre-treated 2 days and continued, compound 5 µM
[5] = glucocorticoid arm: vehicle, compound 1 µM
[6] = glucocorticoid arm: vehicle, compound 5 µM
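Further: CTB read-out in 384-well plates, mean of triplicate wells, normalised per plate against 1 µM phenylarsine oxide and 0.1% DMSO, compounds added 24 h after seeding.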

| SMILES | normalised cell viability [1] | normalised cell viability [2] | normalised cell viability [3] | normalised cell viability [4] | normalised cell viability [5] | normalised cell viability [6] |
| --- | --- | --- | --- | --- | --- | --- |
| CN1CCc2cccc3c2C1Cc1ccc(O)c(O)c1-3 (stereo not drawn) [R-(-)-Apomorphine hydrochloride hemihydrate] | 1.007 ± 0.0058 | 1.06 ± 0.015 | 1.013 ± 0.0058 | 1.045 ± 0.0071 | 0.999 ± 0.0095 | 1.01 |
| NC(=O)c1ccncc1 [Isonicotinamide] | 0.9957 ± 0.0059 | 1.01 ± 0.018 | 0.996 ± 0.016 | 1.01 ± 0.015 | 1.001 ± 0.0071 | 0.999 ± 0.015 |
| O=C(O)C1=CCNCC1 [Isoguvacine hydrochloride] | 1.01 ± 0.015 | 1.03 ± 0.015 | 1.02 ± 0.015 | 1.03 ± 0.015 | 0.99933 ± 0.00058 | 1 ± 0.0095 |
| CNC(=C[N+](=O)[O-])NCCSCc1csc(CN(C)C)n1 [Nizatidine] | 1.03 ± 0.017 | 1 ± 0.034 | 1.03 ± 0.015 | 1.01 ± 0.028 | 0.9993 ± 0.0011 | 0.997 ± 0.003 |
| CC(C)CN(C[C@@H](O)[C@H](Cc1ccccc1)NC(=O)O[C@H]1CCOC1)S(=O)(=O)c1ccc(N)cc1 [Amprenavir (Agenerase)] | 0.976 ± 0.018 | 1.01 ± 0.035 | 0.994 ± 0.018 | 1.02 ± 0.01 | 0.988 ± 0.012 | 0.9963 ± 0.0063 |
| CCC1=C[C@@H]2CN(C1)Cc1c([nH]c3ccccc13)[C@@](C(=O)OC)(c1cc3c(cc1OC)N(C)[C@H]1[C@@](O)(C(=O)OC)[C@H](OC(C)=O)[C@]4(CC)C=CCN5CC[C@]31[C@@H]54)C2 [Vinorelbine tartrate] | 0.327 ± 0.0017 | 0.35 ± 0.02 | 0.629 ± 0.017 | 0.683 ± 0.036 | 0.0577 ± 0.0028 | 0.0356 ± 0.0026 |
| O=c1ccc2c(OCCCCc3ccccc3)c3ccoc3cc2o1 [Psora-4] | 1.007 ± 0.0058 | 1.02 | 1.02 ± 0.015 | 1.02 ± 0.014 | 0.986 ± 0.012 | 0.9937 ± 0.0071 |
| C=CC(=O)Nc1cccc(Nc2nc(Nc3ccc(NC4CN(CCF)C4)cc3OC)ncc2C(F)(F)F)c1 | 0.941 ± 0.011 | 0.585 ± 0.048 | 0.863 ± 0.018 | 0.658 ± 0.071 | 0.961 ± 0.016 | 0.635 ± 0.013 |
| NC(=O)c1cc[n+](CC2=C(C(=O)O)N3C(=O)[C@@H](NC(=O)C(c4ccccc4)S(=O)(=O)[O-])[C@H]3SC2)cc1 (stereo partly drawn) [Cefsulodin sodium salt hydrate] | 1.01 | 1.013 ± 0.0058 | 1.02 | 1.01 ± 0.014 | 0.997 ± 0.013 | 0.9997 ± 0.0096 |
| CCn1cc(C(=O)O)c(=O)c2cc(F)c(N3CCNC(C)C3)c(F)c21 (stereo not drawn) [Lomefloxacin hydrochloride] | 0.997 ± 0.012 | 0.971 ± 0.026 | 1 ± 0.018 | 0.941 ± 0.027 | 1 ± 0.0095 | 1.002 ± 0.0076 |
| CS(=O)(=O)Nc1ccc([N+](=O)[O-])cc1Oc1ccccc1 [Nimesulide] | 1.007 ± 0.0058 | 1.01 ± 0.022 | 1.01 ± 0.01 | 1.05 ± 0.064 | 0.991 ± 0.0036 | 1 ± 0.0089 |
| c1ccc2c(Oc3nc(Nc4ccc(N5CCOCC5)cc4)c4ncn(C5CCCCC5)c4n3)cccc2c1 [Purmorphamine] | 1.03 ± 0.01 | 1.03 | 1.03 ± 0.011 | 1.03 ± 0.027 | 1.023 ± 0.0058 | 1.017 ± 0.0058 |
| C[C@]12C=CC(=O)C=C1CC[C@@H]1C2=CC[C@]2(C)[C@@H](C(=O)CN3CCN(c4cc(N5CCCC5)nc(N5CCCC5)n4)CC3)CC[C@@H]12 | 0.991 ± 0.0066 | 1.01 ± 0.011 | 1.03 ± 0.026 | 1.07 ± 0.011 | 0.9937 ± 0.006 | 1.003 ± 0.0061 |
| COc1cc2nccc(Oc3ccc(NC(=O)Nc4ccc(F)cc4F)c(F)c3)c2cc1OC | 1.05 ± 0.011 | 1.06 ± 0.01 | 1.037 ± 0.0058 | 1.04 ± 0.021 | 1.003 ± 0.0063 | 1.013 ± 0.0058 |
| CCC[C@H](NC(=O)/C(C#N)=C/c1cccc(Br)n1)c1ccccc1 | 1.017 ± 0.0058 | 0.726 ± 0.1 | 1.02 ± 0.01 | 1.09 ± 0.025 | 0.996 ± 0.0046 | 0.339 ± 0.026 |
| O=c1onc2n1-c1cc(Br)ccc1OC2 | 1.02 ± 0.016 | 0.996 ± 0.013 | 1.027 ± 0.0058 | 1.06 ± 0.064 | 1.023 ± 0.0058 | 1.033 ± 0.0058 |
| Cc1ccc(/C(=C\CN2CCCC2)c2ccccn2)cc1 [Triprolidine hydrochloride] | 1 ± 0.0095 | 1 ± 0.033 | 1.02 ± 0.017 | 0.996 ± 0.026 | 1.002 ± 0.0076 | 1.01 ± 0.011 |
| CCc1c2c(nc3ccc(OC(=O)N4CCC(N5CCCCC5)CC4)cc13)-c1cc3c(c(=O)n1C2)COC(=O)[C@]3(O)CC [Irinotecan HCl; Irinotecan hydrochloride] | 1.02 ± 0.01 | 0.353 ± 0.013 | 1.01 ± 0.014 | 0.693 ± 0.015 | 0.914 ± 0.022 | 0.0996 ± 0.0021 |
| C=CCN1CCc2c(cc(O)c(O)c2Cl)C(c2ccccc2)C1 (racemic) [(±)-Chloro-APB hydrobromide] | 0.9917 ± 0.0072 | 1.02 ± 0.01 | 0.989 ± 0.0061 | 1 ± 0.011 | 0.9943 ± 0.0021 | 0.99467 ± 0.00058 |
| CNCCC=C1c2ccccc2CCc2ccccc21 [Nortriptyline hydrochloride] | 1.013 ± 0.0058 | 0.98 ± 0.026 | 1.02 ± 0.011 | 0.861 ± 0.28 | 0.9993 ± 0.0011 | 1.02 ± 0.01 |
| O=C(NC(NC(=S)Nc1ccc(F)c([N+](=O)[O-])c1)C(Cl)(Cl)Cl)C(c1ccccc1)c1ccccc1 (stereo not drawn) | 0.9663 ± 0.0071 | 0.932 ± 0.011 | 0.946 ± 0.025 | 0.964 ± 0.007 | 0.9937 ± 0.0025 | 0.995 ± 0.017 |
| Cc1ccc(C(=O)Nc2ccc(S(=O)(=O)O)c3cc(S(=O)(=O)O)cc(S(=O)(=O)O)c23)cc1NC(=O)c1cccc(NC(=O)Nc2cccc(C(=O)Nc3cc(C(=O)Nc4ccc(S(=O)(=O)O)c5cc(S(=O)(=O)O)cc(S(=O)(=O)O)c45)ccc3C)c2)c1 [Suramin hexasodium] | 1.02 ± 0.015 | 1.03 ± 0.01 | 1.03 ± 0.023 | 1.03 ± 0.015 | 0.991 ± 0.023 | 1.006 ± 0.0069 |
| Cc1ccc(C(=O)Nc2ccc(S(=O)(=O)O)c3cc(S(=O)(=O)O)cc(S(=O)(=O)O)c23)cc1NC(=O)c1cccc(NC(=O)Nc2cccc(C(=O)Nc3cc(C(=O)Nc4ccc(S(=O)(=O)O)c5cc(S(=O)(=O)O)cc(S(=O)(=O)O)c45)ccc3C)c2)c1 [Suramin·6Na] | 1.01 ± 0.015 | 1.03 ± 0.013 | 1 ± 0.011 | 1.03 ± 0.014 | 0.9985 ± 0.0064 | 1.01 ± 0.0063 |
